± gives the uncertainty stated by the source. The sequences are guide strands of siRNAs; only the seed at positions 2 to 7 varies.
Tests used:
3LL = assay: cell viability relative to siNT1 control; higher = less toxic; settings: concentration: 10 nM; 96 h; Mus musculus;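 also: Luminescence-based viability of cells reverse transfected in 384-well plates with lipid-complexed siRNAs built on a non-toxic 19mer backbone whose passenger strand carries 2′-O-methyl groups at positions 1 and 2, triplicates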
H460 = assay: cell viability relative to lipid-only control; HeyA8 human ovarian and H460 human lung cancer; M565 mouse liver and 3LL mouse lung cancer; siNT1 is a non-toxic control siRNA; higher = less toxic; settings: concentration: 10 nM; 96 h; Homo sapiens
HeyA8 = assay: as above; settings: concentration: 10 nM; 96 h; Homo sapiens
M565 = assay: as above; settings: concentration: 10 nM; 96 h; Mus musculus
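For cell viability relative to lipid-only control in this document: reverse lipid transfection in 384-well plates, in triplicate, of duplexes on a non-toxic 19mer backbone with passenger strand 2′-O-methylated at positions 1 and 2, luminescence viability read-out.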

| Sequence | cell viability (3LL) [%] | cell viability (H460) [%] | cell viability (HeyA8) [%] | cell viability (M565) [%] |
| --- | --- | --- | --- | --- |
| UGGGUGCACAUGUAAACCAAA | 38.6 ± 7.4 | 7.78 ± 0.6 | 2.68 ± 0.41 | 15 ± 3 |
| UGGGUGGACAUGUAAACCAAA | 13.9 ± 3.8 | 3.81 ± 0.34 | 1.65 ± 0.11 | 9.23 ± 2.1 |
| UGGGUGUACAUGUAAACCAAA | 51.4 ± 10 | 21.2 ± 0.79 | 2.67 ± 0.22 | 18.4 ± 2.2 |
| UGGGUUAACAUGUAAACCAAA | 88.7 ± 1.8 | 54.8 ± 11 | 22 ± 5.3 | 42.5 ± 5 |
| UGGGUUCACAUGUAAACCAAA | 91.1 ± 9.3 | 35.4 ± 3.5 | 31.3 ± 2.5 | 38.2 ± 10 |
| UGGGUUGACAUGUAAACCAAA | 77.4 ± 4 | 31.3 ± 4.7 | 13.2 ± 1.7 | 37.5 ± 10 |
| UGGGUUUACAUGUAAACCAAA | 94.7 ± 10 | 80.4 ± 20 | 41.1 ± 2.4 | 40.7 ± 5.2 |
| UGGUAAAACAUGUAAACCAAA | 90.8 ± 10 | 67 ± 11 | 89.3 ± 3.5 | 74.6 ± 22 |
| UGGUAACACAUGUAAACCAAA | 59 ± 4 | 48.3 ± 5.8 | 9.32 ± 1.6 | 43.1 ± 9 |
| UGGUAAGACAUGUAAACCAAA | 86.4 ± 8.4 | 73.6 ± 10 | 80.2 ± 8.4 | 72.5 ± 16 |
| UGGUAAUACAUGUAAACCAAA | 91.4 ± 9.5 | 44.7 ± 3 | 42.5 ± 0.58 | 40.7 ± 5.3 |
| UGGUACAACAUGUAAACCAAA | 65.2 ± 11 | 50.5 ± 5.7 | 41.1 ± 3.2 | 59.1 ± 11 |
| UGGUACCACAUGUAAACCAAA | 49.2 ± 5.4 | 34.9 ± 1.3 | 20.9 ± 5.7 | 21.3 ± 4.2 |
| UGGUACGACAUGUAAACCAAA | 73.1 ± 1.6 | 55.7 ± 2.9 | 67.8 ± 5 | 38.2 ± 4.8 |
| UGGUACUACAUGUAAACCAAA | 49.6 ± 8.3 | 39.9 ± 5.4 | 33.1 ± 3.8 | 23.2 ± 3.7 |
| UGGUAGAACAUGUAAACCAAA | 37.1 ± 3.8 | 42.8 ± 1.4 | 65.7 ± 6.2 | 43.8 ± 7.3 |
| UGGUAGCACAUGUAAACCAAA | 26.1 ± 1.5 | 14.7 ± 0.77 | 25.2 ± 3.5 | 17.8 ± 2.7 |
| UGGUAGGACAUGUAAACCAAA | 17.1 ± 2 | 35.5 ± 4.5 | 6.21 ± 1.6 | 16.3 ± 5.3 |
| UGGUAGUACAUGUAAACCAAA | 23.4 ± 4.1 | 39.9 ± 1.9 | 7.41 ± 1.9 | 33.4 ± 4.2 |
| UGGUAUAACAUGUAAACCAAA | 91.2 ± 11 | 73 ± 5.3 | 69.1 ± 0.94 | 71.5 ± 6.9 |

| Sequence | cell viability (3LL) [%] | cell viability (H460) [%] | cell viability (HeyA8) [%] | cell viability (M565) [%] |
| --- | --- | --- | --- | --- |
| UGGUAUCACAUGUAAACCAAA | 67.6 ± 5.6 | 25 ± 1.3 | 32.3 ± 3.4 | 71.3 ± 13 |
| UGGUAUGACAUGUAAACCAAA | 59.8 ± 15 | 56.2 ± 6.8 | 32.3 ± 1.1 | 48.4 ± 3.4 |
| UGGUAUUACAUGUAAACCAAA | 84 ± 12 | 63.4 ± 16 | 53.9 ± 10 | 73.9 ± 4.9 |
| UGGUCAAACAUGUAAACCAAA | 92.7 ± 7 | 31.8 ± 2.9 | 58.9 ± 3.7 | 93.7 ± 22 |
| UGGUCACACAUGUAAACCAAA | 47.3 ± 1.4 | 39.5 ± 1.6 | 78.2 ± 5 | 55.9 ± 8.2 |
| UGGUCAGACAUGUAAACCAAA | 87.6 ± 4.4 | 43 ± 3.6 | 53.1 ± 19 | 128 ± 18 |
| UGGUCAUACAUGUAAACCAAA | 93.3 ± 6.3 | 39.1 ± 2 | 30.4 ± 2.4 | 77.3 ± 11 |
| UGGUCCAACAUGUAAACCAAA | 68.1 ± 5.5 | 23 ± 3 | 22.9 ± 3.2 | 22.2 ± 2.9 |
| UGGUCCCACAUGUAAACCAAA | 18.3 ± 1.5 | 16.4 ± 1.3 | 29.9 ± 5.3 | 8.36 ± 0.18 |
| UGGUCCGACAUGUAAACCAAA | 57.9 ± 8.3 | 23.3 ± 3 | 24.9 ± 2.4 | 21.9 ± 7.1 |
| UGGUCCUACAUGUAAACCAAA | 38.6 ± 2.7 | 21.7 ± 3.4 | 13.3 ± 1.7 | 22.8 ± 4.8 |
| UGGUCGAACAUGUAAACCAAA | 96.1 ± 10 | 41.6 ± 5.7 | 56.9 ± 1.4 | 109 ± 13 |
| UGGUCGCACAUGUAAACCAAA | 73.6 ± 3.5 | 21.58 ± 0.18 | 27 ± 1.4 | 53.4 ± 5.7 |
| UGGUCGGACAUGUAAACCAAA | 57.5 ± 1.1 | 17.6 ± 4.2 | 25.8 ± 3.3 | 41.7 ± 4 |
| UGGUCGUACAUGUAAACCAAA | 64.4 ± 4.5 | 21.1 ± 3.2 | 31.4 ± 1.8 | 58.9 ± 11 |
| UGGUCUAACAUGUAAACCAAA | 89.9 ± 10 | 55 ± 6.6 | 77.1 ± 12 | 88.5 ± 10 |
| UGGUCUCACAUGUAAACCAAA | 89.8 ± 13 | 47.4 ± 9 | 44.1 ± 4.4 | 62.3 ± 22 |
| UGGUCUGACAUGUAAACCAAA | 70.3 ± 3.8 | 25.1 ± 1.6 | 14.1 ± 1.3 | 79.4 ± 14 |
| UGGUCUUACAUGUAAACCAAA | 90.9 ± 14 | 29.79 ± 0.16 | 14 ± 2 | 89.9 ± 17 |
| UGGUGAAACAUGUAAACCAAA | 46.3 ± 4.3 | 49.8 ± 5.9 | 41.8 ± 3.9 | 33.8 ± 10 |

| Sequence | cell viability (3LL) [%] | cell viability (H460) [%] | cell viability (HeyA8) [%] | cell viability (M565) [%] |
| --- | --- | --- | --- | --- |
| UGGUGACACAUGUAAACCAAA | 19.7 ± 3.5 | 11.6 ± 0.96 | 7.79 ± 0.74 | 12.9 ± 3.5 |
| UGGUGAGACAUGUAAACCAAA | 4.66 ± 1.1 | 20.7 ± 3 | 17.8 ± 1.7 | 10.4 ± 1.8 |
| UGGUGAUACAUGUAAACCAAA | 26.4 ± 5 | 41.5 ± 5.6 | 34.6 ± 4.7 | 36.2 ± 9.5 |
| UGGUGCAACAUGUAAACCAAA | 30.1 ± 9.3 | 24.3 ± 3.7 | 15.1 ± 0.48 | 13.2 ± 1.6 |
| UGGUGCCACAUGUAAACCAAA | 1.77 ± 0.35 | 6.08 ± 1.8 | 4.88 ± 3.9 | 4.69 ± 0.66 |
| UGGUGCGACAUGUAAACCAAA | 34.2 ± 5.3 | 17.4 ± 2.3 | 8.24 ± 1 | 23.9 ± 2 |
| UGGUGCUACAUGUAAACCAAA | 5.68 ± 2.8 | 5.82 ± 0.78 | 3 ± 0.57 | 18 ± 7.3 |
| UGGUGGAACAUGUAAACCAAA | 8.99 ± 3.9 | 6.83 ± 0.6 | 2 ± 1.5 | 12.2 ± 0.93 |
| UGGUGGCACAUGUAAACCAAA | 8.5 ± 3.1 | 12.7 ± 2.1 | 3.97 ± 0.63 | 15.7 ± 1.4 |
| UGGUGGGACAUGUAAACCAAA | 2.2 ± 0.66 | 5.41 ± 0.34 | 1.66 ± 0.28 | 6.95 ± 1.4 |
| UGGUGGUACAUGUAAACCAAA | 3.4 ± 0.52 | 5.8 ± 1.7 | 1.95 ± 0.18 | 12.1 ± 6.9 |
| UGGUGUAACAUGUAAACCAAA | 89.3 ± 5.9 | 52.9 ± 5.6 | 31.2 ± 3 | 37.8 ± 5.5 |
| UGGUGUCACAUGUAAACCAAA | 31.8 ± 4.2 | 37.3 ± 0.89 | 23.9 ± 0.82 | 10.2 ± 4.9 |
| UGGUGUGACAUGUAAACCAAA | 71 ± 5.7 | 22 ± 2.4 | 29.3 ± 4.3 | 38.4 ± 7.1 |
| UGGUGUUACAUGUAAACCAAA | 95 ± 14 | 29.8 ± 1.8 | 6.56 ± 0.69 | 27.8 ± 3.1 |
| UGGUUAAACAUGUAAACCAAA | 92.3 ± 12 | 74.3 ± 16 | 75.7 ± 5.5 | 58.2 ± 10 |
| UGGUUACACAUGUAAACCAAA | 95.5 ± 13 | 70.4 ± 16 | 77 ± 4.1 | 77.9 ± 7.2 |
| UGGUUAGACAUGUAAACCAAA | 59 ± 2.5 | 48.6 ± 9.7 | 30.4 ± 3.7 | 44.6 ± 2.8 |
| UGGUUAUACAUGUAAACCAAA | 95 ± 9.9 | 68.7 ± 10 | 75.2 ± 8.2 | 63.9 ± 2.1 |
